Source: PubChem BioAssay AID1347417 (National Center for Advancing Translational Sciences (NCATS), 2020)
Hit rate of the full screen: of about 120,000 compounds, about 5,300 (4.4%) were called active. The inconclusive results got no clear call from the source; some entries with a clear call stand among them for comparison. Calls follow the shape of the dose curve; as a rule, active = well fitted inhibition curve with a large enough effect; inconclusive = small, poorly fitted or top-dose-only effect; inactive = no such curve, though single readings can be large or run the other way. Potencies of inconclusive entries are doubtful fits and often do not repeat.

Assay: qHTS Primary assay for Inhibitors of Plasmodium falciparum Dd2 growth in vitro; also: nearly all actives have a fitted effect of over 65% in size;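 as to activity, negative = inhibition: plate controls were DMSO vehicle for no effect and reference drug for full effect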
Settings: P. falciparum Dd2 growth, SYBR Green, 72 h; activity, negative = inhibition: at 28.9 µM (top of the series) unless noted; series mostly up to 28.9 µM
Summary of the method: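 Readout: SYBR Green fluorescence, 485 nm excitation, 535 nm emission, after ~16 h lysis at 37C. Before that, Dd2-infected red cells (2.5% hematocrit) grew 72 h with compound, 29 uM top final concentration.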
Potency is read from the fitted curve at half-maximal effect; tags tell the direction and shape of the fitted curve.

Compound	Potency	activity, negative = inhibition	outcome
CCOc1ccc(S(=O)(=O)Nc2cccc(C)c2)c2cccnc12	inconclusive: 7.94 µM [inhibitor, partial curve, poor fit]	–	–
COc1cccc(-c2nc(N3CCOCC3)cc3c2CN(CC2CC2)C3=O)c1OC	–	inactive: 3.66% [at 44.1 µM]	–
C[S+](=O)([O-])Nc1cccc(N2C[C@@H]3C(C(=O)NC4CCOCC4)=NO[C@@H]3C2)c1	–	inactive: 5.22% [at 44.1 µM]	–
Cc1ccc(Nc2ncnc3onc(C)c23)cc1Cl	inconclusive: 20 µM [inhibitor, single point]	–	–
CC(C)=CCC1(CO)CCCN(Cc2csc(C)n2)C1 (stereo not drawn)	inconclusive: 8.91 µM [inhibitor, single point]	–	–
O=C(NCC12CCC=C1N(CC1CC1)C(=O)CC2)Nc1cccc(F)c1 (stereo not drawn)	inconclusive: 0.316 µM [inhibitor, full curve]	–	–
CCCn1ccc2sc(C)c(C(=O)NCc3ccccc3OCC)c2c1=O	inconclusive: 2.24 µM [inhibitor, full curve]	–	–
O=C(NCc1ccc(F)cc1)C1CN(c2ccccc2)C(=O)N1 (stereo not drawn)	inconclusive: 28.2 µM [inhibitor, partial curve, poor fit]	–	–
C[C@]1(CO)C2CC[C@@H](O)[C@@H](CC(=O)N3CC[C@@H](O)C3)[C@]2(C)CC[C@H]1OC(=O)Nc1ccc(Cl)c(Cl)c1 (stereo partly drawn)	inconclusive: 5.01 µM [inhibitor, partial curve]	–	–
COc1ccc(CN2C(=O)O[C@@H]3CN(C4CCCCC4)C[C@@H]32)cc1OC	inconclusive: 20 µM [inhibitor, partial curve, poor fit]	–	–
O=C(c1cc(F)ccc1F)N1CCC(Cc2nc(-c3cnccn3)no2)CC1	–	inactive: -11.1%	–
Cc1ccc(-c2nnc(Nc3ccc(Cl)c(Cl)c3)c3ccccc23)cc1S(=O)(=O)N(C)C	active: 10 µM	–	–
Nc1nc(C2CC(NC(=O)c3csc4c3CCCC4)C2)cc(=O)[nH]1 (stereo not drawn)	inconclusive: 0.224 µM [inhibitor, full curve, poor fit]	–	–
Cn1ccnc1C(=O)N1CCC(Oc2cccc(F)c2)C1 (stereo not drawn)	active: 7.94 µM	–	–
Cn1c2c(c3cc(F)ccc31)CN(C(=O)Nc1ccc(F)c(Cl)c1)CC2	–	inactive: -26.7%	–
COCc1nncn1C1CCN(S(=O)(=O)c2cc(Cl)ccc2OC)CC1	inconclusive: 5.01 µM [inhibitor, partial curve, poor fit]	–	–
O=C(Cc1c[nH]c2ncc(-c3ccsc3)cc12)N1CCOCC1	–	inactive: 23.3% [at 44.1 µM]	–
Cc1cccc(CNC(=O)CN2C(=O)C3CCCCN3c3ccc(C(=O)N4CCCC4)cc32)c1 (stereo not drawn)	inconclusive: 17.8 µM [inhibitor, single point]	–	–
CCCCOC(=O)c1ccc(NC(=O)Cc2coc3c(C)c(C)ccc23)cc1	inconclusive: 11.2 µM [inhibitor, single point]	–	–
CCn1nccc1C(=O)N1CCC2(CC1)CC(N(Cc1ccccc1)C1CC1)CCO2 (stereo not drawn)	inconclusive: 3.98 µM [inhibitor, single point]	–	–
O=C1[C@@H]2C[C@@H](O)CN2C2(CN(C3CCCCC3)C2)C(=O)N1Cc1ccccc1F	–	inactive: -24.5% [at 44.1 µM]	–
CCNC(=O)C1CCCN(c2nnc(C)c3c(C)n(-c4ccc(C)cc4)nc23)C1 (stereo not drawn)	inconclusive: 8.91 µM [inhibitor, single point]	–	–
Cc1ccccc1-c1nccc2c(=O)cc(C3=CCOCC3)oc12	active: 10 µM	–	–

Compound	Potency	activity, negative = inhibition	outcome
O=C(NCCN1CCCC1)C1CCN(c2cnn(CC3CC3)c(=O)c2)C1 (stereo not drawn)	–	inactive: 26.3%	–
CN(Cc1ccccc1)Cc1cc(C[C@H]2CNCC[C@H]2CC(=O)NCc2cccs2)no1	inconclusive: 17.8 µM [inhibitor, single point]	–	–
COc1ccc(-c2c3c(nc4sc(C(=O)Nc5ccccc5F)c(N)c24)CC(C)(C)CC3=O)cc1	inconclusive: 10 µM [inhibitor, single point]	–	–
CN(c1ccccc1)C1CNC1	inconclusive: 12.6 µM [inhibitor, partial curve, poor fit]	–	–
O[C@H]1CC[C@@H](Cc2cc(-c3ccc(F)cc3)on2)O[C@@H]1CNCc1ccccc1Cl	inconclusive: 0.631 µM [inhibitor, full curve, poor fit]	–	–
O=C(NC1CCCN(c2cc(-c3ccc(F)cc3)[nH]n2)C1)c1ccsc1 (stereo not drawn)	inconclusive: 0.112 µM [inhibitor, full curve, poor fit]	–	–
O=C(OCc1ccccc1)N1CCOCC12CCN(Cc1cccnc1)CC2	inconclusive: 11.2 µM [inhibitor, single point]	–	–
COc1ccccc1C(=O)N1c2ccccc2C(C)(c2ccc(Cl)cc2)CC1(C)C (stereo not drawn)	active: 8.91 µM	–	–
COCC(=O)N1CCCC2(Cc3ccccc3NC2=O)C1 (stereo not drawn)	inconclusive: 10 µM [inhibitor, partial curve, poor fit]	–	–
O=C(Nc1ccc(Cl)cc1)c1cc2c(Cl)nc3ccccc3c2s1	inconclusive: 17.8 µM [inhibitor, single point]	–	–
O=C(Nc1ccc(S(=O)(=O)N2CCCCC2c2cccnc2)cc1)c1ccc(F)cc1 (stereo not drawn)	inconclusive: 11.2 µM [inhibitor, single point]	–	–
CCC(=O)Nc1ccc(C2(C(=O)N3CCCC(C)C3)CCCCC2)cc1 (stereo not drawn)	inconclusive: 20 µM [inhibitor, partial curve, poor fit]	–	–
CCOc1cc(=O)n2c(c1C(=O)Nc1cccc(C(=O)OC)c1)CCCC2	–	inactive: 45.6%	–
Cc1ccc(C(=O)N2CCC3(CC2)CC(OCC2CC2)CCO3)cn1 (stereo not drawn)	–	inactive: -1.17%	–
COCCc1nncn1C1CCNCC1	–	inactive: 2.22%	–
CCC(C)NC(=O)C(C)N1C(=O)COc2ccc(C(=O)COc3ccc(OC)cc3)cc21 (stereo not drawn)	–	inactive: -27.5%	–
O=C(NC[C@H]1OC[C@@H](NC2CCCCC2)[C@@H]1O)C1CCCC1	inconclusive: 31.6 µM [inhibitor, single point]	–	–
COC[C@H]1CCCN1[C@@H]1[C@H](O)[C@H](CO)O[C@@H]1CN(Cc1cccc(Cl)c1)Cc1cccc(Cl)c1	active: 0.708 µM	–	–
Cc1c(Cl)cccc1NC(=O)Cn1ccn2nc3c(c2c1=O)CCCC3	–	inactive: -9.48%	–
O=C(NC1C[C@H]2CC[C@@H](C1)N2C(=O)c1ccco1)c1ccncc1 (stereo partly drawn)	inconclusive: 0.891 µM [inhibitor, full curve]	–	–
COc1cccc(NC(=O)N[C@H]2CCN(C(=O)c3cccn3C)[C@@H]2C(=O)N[C@@H](Cc2cccs2)C(N)=O)c1	–	–	inactive
N[C@@H](Cc1ccccc1)C(=O)N1CCC2(CC1)C(=O)NCN2C(=O)C1CCCC1	–	inactive: -14.3%	–
Cc1c(CC(=O)NC(C)C)c2c(n1Cc1ccccc1F)CCCC2=O	inconclusive: 12.6 µM [inhibitor, single point]	–	–

Compound	Potency	activity, negative = inhibition	outcome
CCc1ccc(-c2nc(SCC(=O)NCC3CCCO3)c(-c3ccc(F)cc3)[nH]2)cc1 (stereo not drawn)	inconclusive: 17.8 µM [inhibitor, single point]	–	–
O=c1cc(N2CCOCC2)oc2c(-c3ccccc3Oc3ccccc3)nccc12	inconclusive: 14.1 µM [inhibitor, single point]	–	–
COc1ccc(CCNc2nc(SCc3ccc(F)cc3)nc3ccccc23)cc1OC	inconclusive: 6.31 µM [inhibitor, partial curve, poor fit]	–	–
COC[C@]1(O)CCN(C(=O)CN2CCCC2)CC1(C)C	–	inactive: -6.17%	–
O=C(NC[C@H]1O[C@@H](CC(=O)N2CCN(c3ccccn3)CC2)[C@H](O)[C@@H]1O)NC1CCCCC1	–	inactive: 15%	–
O=C(Nc1cccc(-c2nc3ccccc3[nH]2)c1)c1ccccc1F	–	inactive: -16%	–
Cc1ccsc1CN1CCc2c(sc3ncnc(N(C)C)c23)C1	active: 5.01 µM	–	–
CN(C)c1ccc(CC(=O)N2CC[C@@](C)(O)[C@@H](O)C2)cc1	inconclusive: 0.141 µM [inhibitor, full curve, poor fit]	–	–
CNC(=O)NC[C@H]1CCN(Cc2ccc(OC)c(OC)c2Cl)C[C@H]1N(C)C	–	inactive: -2.7%	–
CN1C[C@@H](NC(=O)CC(C)(C)C)C[C@H]1c1nc(Cc2ccccc2)no1	inconclusive: 22.4 µM [inhibitor, single point]	–	–
C=CCc1ccccc1OCCn1c(C2CC(=O)N(Cc3ccc(F)cc3)C2)nc2ccccc21 (stereo not drawn)	inconclusive: 11.2 µM [inhibitor, single point]	–	–
CCc1cc(CNC(=O)C2CCN(c3nc(-c4ccccc4)nc4c3CCC4)CC2)on1	inconclusive: 8.91 µM [inhibitor, partial curve]	–	–
CCc1ccc(S(=O)(=O)c2cn(Cc3ccc(OC)cc3)c3cc(OC)c(OC)cc3c2=O)cc1	active: 11.2 µM	–	–
COc1ccc2c(c1)c(CN1CCCC(c3nc(C(C)C)no3)CCNC(=O)CC1)cn2C(C)C (stereo not drawn)	inconclusive: 0.355 µM [inhibitor, full curve, poor fit]	–	–
COCC1CN(C(=O)CCCc2ccccc2)CC12CCNCC2 (stereo not drawn)	–	inactive: 15.2%	–
O=C(c1cccs1)N1CCC(Cc2nc(C3CC3)n[nH]2)CC1	inconclusive: 8.91 µM [inhibitor, partial curve, poor fit]	–	–
Cc1cc(C)c(NC(=O)C2CCCN(C(=O)c3cnn(-c4ccccc4)c3-n3cccc3)C2)c(C)c1 (stereo not drawn)	inconclusive: 17.8 µM [inhibitor, single point]	–	–
CCc1ccccc1NC(=O)c1ccc2c(c1)c(C)c(C)n2Cc1ccccc1	active: 11.2 µM	–	–
CN1CCC2(CCC1=O)CN(CCCCOc1ccccc1)CCN2C (stereo not drawn)	inconclusive: 10 µM [inhibitor, single point]	–	–
NC1CC(c2cc(N3CCN(c4ccc5nccn5n4)CC3)ncn2)C1 (stereo not drawn)	inconclusive: 11.2 µM [inhibitor, partial curve, poor fit]	–	–
COCC(=O)N[C@H]1C[C@@H](CO)N(Cc2ccc(C)s2)C1	–	inactive: 4.52%	–
Cc1ncoc1C(=O)N1CCC(F)(c2nc(-c3ccncc3)no2)CC1	inconclusive: 17.8 µM [inhibitor, single point]	–	–
